The GPR68 mutational scans of Howard et al. (2025)
The least precise scores are not listed. Two further conditions of the source, in which the scores hardly spread, are not listed. Names with del lack the residues named; names with ins carry added residues between the positions named. For part of these data: The concentration of ogerin is not given here.

B1: GPR68, Q15743 (parent)
chain: MGNITADNSSMSCTIDHTIHQTLAPVVYVTVLVVGFPANCLSLYFGYLQIKARNELGVYLCNLTVADLFYICSLPFWLQYVLQHDNWSHGDLSCQVCGILLYENIYISVGFLCCISVDRYLAVAHPFRFHQFRTLKAAVGVSVVIWAKELLTSIYFLMHEEVIEDENQHRVCFEHYPIQAWQRAINYYRFLVGFLFPICLLLASYQGILRAVRRSHGTQKSRKDQIQRLVLSTVVIFLACFLPYHVLLLVRSVWEASCDFAKGVFNAYHFSLLLTSFNCVADPVLYCFVSETTHRDLARLRGACLAFLTCSRTGRAREAYPLGAPEASGKSGAQGEEPELLTKLHPAFQTPNSPGSGGFPTGRLA

What was measured:
[1] = variants of: B1; experiment: cAMP reporter score (Enrich2 score, wild type = 0); higher = more signal; HEK293T, FACS bins
[2] = variants of: B1; experiment: surface expression score (Enrich2 score, wild type = 0); higher = more signal; HEK293T, FACS bins

Row | Variant | cAMP reporter score ([1]; pH 5.5) | cAMP reporter score ([1]; pH 6, modulator: ogerin) | cAMP reporter score ([1]; pH 6.5, modulator: ogerin) | surface expression score [2] | cAMP reporter score ([1]; pH 6)
1 | MGNITADNSSMSCTIDHTIHQTLAPVVYVTVLVVGFPANCLSLYFGYLQIKARNELGVYLCNLTVADLFYPCSLPFWLQYVLQHDNWSHGDLSCQVCGILLYENIYISVGFLCCISVDRYLAVAHPFRFHQFRTLKAAVGVSVVIWAKELLTSIYFLMHEEVIEDENQHRVCFEHYPIQAWQRAINYYRFLVGFLFPICLLLASYQGILRAVRRSHGTQKSRKDQIQRLVLSTVVIFLACFLPYHVLLLVRSVWEASCDFAKGVFNAYHFSLLLTSFNCVADPVLYCFVSETTHRDLARLRGACLAFLTCSRTGRAREAYPLGAPEASGKSGAQGEEPELLTKLHPAFQTPNSPGSGGFPTGRLA [I71P] | -1.19 | -2.63 | -1.78 | -2.91 | 
2 | MGNITADNSSMSCTIDHTIHQTLAPVVYVTVLVVGFPANCLSLYFGYLQIKARNELGVYLCNLTVADLFYQCSLPFWLQYVLQHDNWSHGDLSCQVCGILLYENIYISVGFLCCISVDRYLAVAHPFRFHQFRTLKAAVGVSVVIWAKELLTSIYFLMHEEVIEDENQHRVCFEHYPIQAWQRAINYYRFLVGFLFPICLLLASYQGILRAVRRSHGTQKSRKDQIQRLVLSTVVIFLACFLPYHVLLLVRSVWEASCDFAKGVFNAYHFSLLLTSFNCVADPVLYCFVSETTHRDLARLRGACLAFLTCSRTGRAREAYPLGAPEASGKSGAQGEEPELLTKLHPAFQTPNSPGSGGFPTGRLA [I71Q] | -1.22 | -0.572 | -0.278 | -2.66 | -0.777
3 | MGNITADNSSMSCTIDHTIHQTLAPVVYVTVLVVGFPANCLSLYFGYLQIKARNELGVYLCNLTVADLFYRCSLPFWLQYVLQHDNWSHGDLSCQVCGILLYENIYISVGFLCCISVDRYLAVAHPFRFHQFRTLKAAVGVSVVIWAKELLTSIYFLMHEEVIEDENQHRVCFEHYPIQAWQRAINYYRFLVGFLFPICLLLASYQGILRAVRRSHGTQKSRKDQIQRLVLSTVVIFLACFLPYHVLLLVRSVWEASCDFAKGVFNAYHFSLLLTSFNCVADPVLYCFVSETTHRDLARLRGACLAFLTCSRTGRAREAYPLGAPEASGKSGAQGEEPELLTKLHPAFQTPNSPGSGGFPTGRLA [I71R] | -0.897 | -2.58 | -1.94 |  | -0.021
4 | MGNITADNSSMSCTIDHTIHQTLAPVVYVTVLVVGFPANCLSLYFGYLQIKARNELGVYLCNLTVADLFYSCSLPFWLQYVLQHDNWSHGDLSCQVCGILLYENIYISVGFLCCISVDRYLAVAHPFRFHQFRTLKAAVGVSVVIWAKELLTSIYFLMHEEVIEDENQHRVCFEHYPIQAWQRAINYYRFLVGFLFPICLLLASYQGILRAVRRSHGTQKSRKDQIQRLVLSTVVIFLACFLPYHVLLLVRSVWEASCDFAKGVFNAYHFSLLLTSFNCVADPVLYCFVSETTHRDLARLRGACLAFLTCSRTGRAREAYPLGAPEASGKSGAQGEEPELLTKLHPAFQTPNSPGSGGFPTGRLA [I71S] | -1.05 | -1.93 | -1.76 | -2.06 | -0.971
